Measured values published in PubChem BioAssay AID504332 (National Center for Advancing Translational Sciences (NCATS), 2011).
Values joined by “and” are separate entries in the source; they are usually repeats but may differ in a detail not shown here. Equal entries are not always repeated. The whole screen tested about 350,000 compounds, of which about 31,000 (8.9%) were called active. The shares of active, inactive and inconclusive entries below differ from those in the screen. Calls come from the whole dose curve; as a rule, active = well fitted inhibition curve with a large enough effect; inconclusive = small, poorly fitted or top-dose-only effect; inactive = no such curve, though single readings can be large or run the other way. A potency beside an inconclusive call is a rough fit, not a confirmed value. A structure can be active in one record and inactive in another.

The compounds below were run against Histone-lysine N-methyltransferase EHMT2 (Homo sapiens) (UniProt Q96KQ7) (assay: qHTS Assay for Inhibitors of Histone Lysine Methyltransferase G9a). Conditions: G9a H3K9 monomethylation, AlphaScreen, 2 h; activity, negative = inhibition: at 59 µM (top of the series) unless noted.
Chain of UniProt Q96KQ7 (Q96KQ7 whole entry, looked up): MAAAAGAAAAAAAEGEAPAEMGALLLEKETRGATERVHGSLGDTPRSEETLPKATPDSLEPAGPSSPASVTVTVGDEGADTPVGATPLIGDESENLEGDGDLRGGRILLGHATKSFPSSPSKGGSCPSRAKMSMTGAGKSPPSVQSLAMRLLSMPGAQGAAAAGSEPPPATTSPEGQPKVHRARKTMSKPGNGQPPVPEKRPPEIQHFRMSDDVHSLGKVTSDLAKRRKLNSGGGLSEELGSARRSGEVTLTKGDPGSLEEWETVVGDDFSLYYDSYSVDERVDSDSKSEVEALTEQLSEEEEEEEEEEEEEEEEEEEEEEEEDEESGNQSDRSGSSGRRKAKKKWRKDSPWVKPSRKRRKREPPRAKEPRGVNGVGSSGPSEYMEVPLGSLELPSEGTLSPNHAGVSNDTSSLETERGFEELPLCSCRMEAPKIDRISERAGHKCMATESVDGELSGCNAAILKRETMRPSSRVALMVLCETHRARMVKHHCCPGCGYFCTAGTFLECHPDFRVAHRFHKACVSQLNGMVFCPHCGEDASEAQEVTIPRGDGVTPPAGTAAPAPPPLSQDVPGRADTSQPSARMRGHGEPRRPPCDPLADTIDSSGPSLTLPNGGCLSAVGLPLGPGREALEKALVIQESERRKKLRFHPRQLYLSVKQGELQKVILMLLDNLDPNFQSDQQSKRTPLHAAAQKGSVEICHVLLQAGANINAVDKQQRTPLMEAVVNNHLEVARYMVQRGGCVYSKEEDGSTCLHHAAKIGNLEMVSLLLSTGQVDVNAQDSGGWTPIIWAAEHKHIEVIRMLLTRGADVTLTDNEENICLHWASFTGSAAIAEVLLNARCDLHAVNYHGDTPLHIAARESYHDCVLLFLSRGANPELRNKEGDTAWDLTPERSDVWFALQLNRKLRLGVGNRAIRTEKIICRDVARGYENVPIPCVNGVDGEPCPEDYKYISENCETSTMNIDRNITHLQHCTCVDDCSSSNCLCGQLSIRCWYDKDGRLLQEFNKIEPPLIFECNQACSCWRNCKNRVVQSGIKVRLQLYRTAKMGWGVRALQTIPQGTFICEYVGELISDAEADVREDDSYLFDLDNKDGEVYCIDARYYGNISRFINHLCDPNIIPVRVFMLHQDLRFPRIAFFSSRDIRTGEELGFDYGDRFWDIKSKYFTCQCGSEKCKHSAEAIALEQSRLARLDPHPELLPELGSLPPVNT
Method in brief: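 Readings reflect AlphaScreen signal from monomethyl-H3K9 antibody detection. HMT at 20 nM; substrate b-H3K9 500 nM; cofactor SAM 20 uM; 2 h RT reaction; compounds tested as titrations in qHTS with 15 min preincubation.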
% is set by controls: 0 for no effect and ±100 for the full control effect; potency is the fitted concentration of half-maximal effect; tags give direction and shape of the fitted curve.
Note: nearly all actives have a fitted effect of over 75% in size.

Structure (SMILES)	activity, negative = inhibition	Potency
COc1ccc(NC(=O)c2cc(N3C(=O)C4C5CCC(C5)C4C3=O)ccc2Cl)c(OC)c1 (stereo not drawn)	inactive: -37.6% [at 102 µM]	–
CC(=O)C(Cc1ccccc1)NC(=O)COC(=O)CCN1C(=O)C2CC=CCC2C1=O (stereo not drawn)	inactive: -13.4% [at 102 µM]	–
COc1ccc(/C=C/C(=O)Nc2ccc(Cl)c(Cl)c2)cc1	inactive: 6.82%	–
O=C(NCCc1ccccc1)c1ccc(NC2=NC3CS(=O)(=O)CC3S2)cc1 (stereo not drawn)	–	inconclusive: 89.1 µM [inhibitor, partial curve, poor fit]
Cc1ccccc1NS(=O)(=O)c1ccc2[nH]c3c(c2c1)CCCCC3	–	inconclusive: 28.2 µM [inhibitor, single point]
O=C(NCCCN1CCOCC1)c1ccc(Cl)cc1	inactive: 1.42% [at 12.7 µM]	–
COCCCNC(=O)c1ccc(Cn2c(=O)c3ccccc3n(Cc3ccccc3C#N)c2=O)cc1	–	inconclusive: 89.1 µM [inhibitor, partial curve, poor fit]
CCC(C)C(NC(=O)c1ccccc1NC(=O)c1ccco1)C(=O)O (stereo not drawn)	–	inconclusive: 50.1 µM [inhibitor, partial curve, poor fit]
COc1cc2[nH]c(=O)n(CCC(=O)NCCC(C)C)c(=O)c2cc1OC	–	inconclusive: 79.4 µM [inhibitor, partial curve, poor fit]
Cc1cc(NC(=O)Cn2nc(-c3ccccc3F)ccc2=O)ccc1-n1cnnn1	–	active: 56.2 µM
CCC(CO)NCc1ccc(OC2CCCC2)cc1 (stereo not drawn)	inactive: 4.76%	–
CC(C)OC(=O)CSc1nnc2n1C(C)(C)Cc1ccccc1-2	–	inconclusive: 56.2 µM [inhibitor, partial curve, poor fit]
COc1cc(CNC(=O)CCCC/C=C/C(C)C)ccc1O	inactive: 3.51%	–
Cc1cc(-c2ccccc2)nc(N/N=C/c2ccc(O)cc2)n1	inactive: 2.3% [at 0.501 µM]	–
OC(CNCCNc1ncccc1C(F)(F)F)COc1ccc(F)cc1 (stereo not drawn)	inactive: 13.2% [at 102 µM]	–
COc1ccc(OC)c(NC2c3ccccc3C(=O)N2Cc2ccc3c(c2)OCO3)c1 (stereo not drawn)	–	active: 31.6 µM
Nc1[nH]c(=S)[nH]c(=O)c1-c1ccccc1	–	inconclusive: 3.98 µM [inhibitor, single point]
Cc1ccc(-c2cc3c(N4CCN(c5cc(C)ccc5C)CC4)nccn3n2)cc1	–	inconclusive: 3.55 µM [inhibitor, partial curve]
O=C(O)CSc1cc(C(F)(F)F)nc(-c2ccccn2)n1	–	inconclusive: 56.2 µM [inhibitor, partial curve, poor fit]
Cn1c(=O)c2sccc2n2c(CCCC(=O)Nc3ccc(Oc4ccc(Cl)cc4)cc3)nnc12	inactive: -1.85%	–
Cc1ccc(C(=O)Nc2ccc(O)cc2C(=O)O)cc1C	–	inconclusive: 28.2 µM [inhibitor, partial curve, poor fit]
Cc1ccc(N(CC(=O)N2CCc3ccccc32)S(=O)(=O)c2cccs2)cc1	–	inconclusive: 89.1 µM [inhibitor, single point]

Structure (SMILES)	activity, negative = inhibition	Potency
O=C(CN(C(=O)CSc1nc2ccccc2o1)c1cccc(F)c1)NC1CCCCC1	–	inconclusive: 79.4 µM [inhibitor, single point]
CN(C)S(=O)(=O)c1ccc(N2CCCC2)c(C(=O)NC(c2ccccc2)c2ccccc2)c1	–	inconclusive: 10 µM [inhibitor, full curve, poor fit]
O=C(N/N=C/c1cc(Cl)cc([N+](=O)[O-])c1O)c1ccc2c(c1)OCO2	–	inconclusive: 70.8 µM [inhibitor, single point]
O=C(c1cc2ncc(Br)cn2n1)N1CCOCC1	–	inconclusive: 100 µM [inhibitor, single point]
CCC(=NCc1ccc(Cl)c(Cl)c1)c1nc(-c2ccco2)oc1O	–	active: 44.7 µM
CCOC(=O)N1CCN(S(=O)(=O)c2ccc(C(=O)N(CCN(CC)CC)c3nc4c(C)cccc4s3)cc2)CC1	–	active: 50.1 µM
Cc1ccc2[nH]c(C)c(CCNC(=O)c3c(N)no[n+]3[O-])c2c1	–	inconclusive: 31.6 µM [inhibitor, partial curve, poor fit]
COc1ccccc1N(Cc1ccccc1)S(=O)(=O)c1cccc(C(=O)Nc2cc(C)ccn2)c1	inactive: 20.6% [at 102 µM]	–
Cc1cc(NC(=O)CCCOc2ccc(Cl)cc2Cl)no1	inactive: 0.512% [at 12.7 µM]	–
CCOC(=O)c1c(-c2ccncc2)csc1N	–	inconclusive: 3.16 µM [inhibitor, single point]
CCOC(=O)c1ccc(N2CC(O)=C(c3nc4ccccc4c(=O)[nH]3)C2=N)cc1	inactive: -32.3% [at 12.7 µM]	–
CCN(Cc1ccccc1)c1ccc(/C=C(\C#N)c2ccccn2)cc1	–	active: 50.1 µM
Cc1ccccc1-c1nnc(SCC(=O)N(C)c2c(N)n(Cc3ccccc3)c(=O)[nH]c2=O)n1C	–	inconclusive: 39.8 µM [inhibitor, partial curve]
COc1ccc(NC(=O)CN2CCN(CC(=O)Nc3ccccc3F)CC2)cc1OC	–	inactive and active: 44.7 µM
Cc1cccnc1NC(=S)Nc1ccc(Br)cc1Cl	–	inconclusive: 10 µM [inhibitor, full curve]
Cc1n[nH]c(=S)c2nn(-c3ccccc3F)c(C)c12	–	inconclusive: 3.55 µM [inhibitor, partial curve, poor fit]
CCc1cc(-c2[nH]ncc2-c2ccc3c(c2)OCO3)c(O)cc1O	–	inconclusive: 2.82 µM [inhibitor, partial curve, poor fit]
COc1ccc(N=C2C(=Nc3ccc(OC)cc3)N(c3ccc(OC)cc3)C(=S)N2c2ccccc2)cc1	–	inconclusive: 8.91 µM [inhibitor, partial curve, poor fit]
CCCCNC(=O)c1sc(=S)n2c1[nH]c(=O)c1ccccc12	–	inconclusive: 31.6 µM [inhibitor, partial curve, poor fit]
CO/N=C(\C(=O)N[C@@H]1C(=O)N2C(C(=O)O)=C(COC(C)=O)CS[C@H]12)c1csc(N)n1	–	active: 17.8 µM and active: 11.2 µM
COc1ccccc1CNC(=O)CSCc1nc(-c2ccc(OC)c(OC)c2)oc1C	–	inconclusive: 28.2 µM [inhibitor, partial curve, poor fit]
